# In all, about 220,000 compounds went through this assay and about 5,700 (2.6%) were called active. The inconclusive results got no clear call from the source; some entries with a clear call stand among them for comparison. The call rests on the fitted dose curve; in most records, active means well fitted inhibition curve with a large enough effect; inconclusive means small, poorly fitted or top-dose-only effect; inactive means no such curve, though single readings can be large or run the other way. A potency beside an inconclusive call is a rough fit, not a confirmed value.
# Target: Lysine-specific demethylase 5B (Homo sapiens) (UniProt Q9UGL1)
# Experiment: Primary screen for KDM5B Histone Demethylases FDH-coupled qHTS; further: nearly all actives have a fitted effect of over 70% in size; on activity change, negative = inhibition: 0% is about no effect
# Conditions: FDH-coupled NADH fluorescence (FDH is formaldehyde dehydrogenase); activity change, negative = inhibition: at 57.7 µM (top of the series) unless noted
# In short: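 Coupled FDH/NAD⁺ fluorescence readout. KDM5BΔAP 200 nM final; compound titration, 10 min RT preincubation; substrate mix 12.5 µM H3K4me3, 25 µM 2-OG, 50 µM Fe(II), 100 µM ascorbate, 0.25 mM NAD⁺, 0.25 U/mL FDH; ΔRFU over 30 min.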
# Potency means the concentration at half of the fitted maximal effect; tags describe the fitted curve by direction and shape.
# Sequence of UniProt Q9UGL1 (Q9UGL1 whole entry, looked up): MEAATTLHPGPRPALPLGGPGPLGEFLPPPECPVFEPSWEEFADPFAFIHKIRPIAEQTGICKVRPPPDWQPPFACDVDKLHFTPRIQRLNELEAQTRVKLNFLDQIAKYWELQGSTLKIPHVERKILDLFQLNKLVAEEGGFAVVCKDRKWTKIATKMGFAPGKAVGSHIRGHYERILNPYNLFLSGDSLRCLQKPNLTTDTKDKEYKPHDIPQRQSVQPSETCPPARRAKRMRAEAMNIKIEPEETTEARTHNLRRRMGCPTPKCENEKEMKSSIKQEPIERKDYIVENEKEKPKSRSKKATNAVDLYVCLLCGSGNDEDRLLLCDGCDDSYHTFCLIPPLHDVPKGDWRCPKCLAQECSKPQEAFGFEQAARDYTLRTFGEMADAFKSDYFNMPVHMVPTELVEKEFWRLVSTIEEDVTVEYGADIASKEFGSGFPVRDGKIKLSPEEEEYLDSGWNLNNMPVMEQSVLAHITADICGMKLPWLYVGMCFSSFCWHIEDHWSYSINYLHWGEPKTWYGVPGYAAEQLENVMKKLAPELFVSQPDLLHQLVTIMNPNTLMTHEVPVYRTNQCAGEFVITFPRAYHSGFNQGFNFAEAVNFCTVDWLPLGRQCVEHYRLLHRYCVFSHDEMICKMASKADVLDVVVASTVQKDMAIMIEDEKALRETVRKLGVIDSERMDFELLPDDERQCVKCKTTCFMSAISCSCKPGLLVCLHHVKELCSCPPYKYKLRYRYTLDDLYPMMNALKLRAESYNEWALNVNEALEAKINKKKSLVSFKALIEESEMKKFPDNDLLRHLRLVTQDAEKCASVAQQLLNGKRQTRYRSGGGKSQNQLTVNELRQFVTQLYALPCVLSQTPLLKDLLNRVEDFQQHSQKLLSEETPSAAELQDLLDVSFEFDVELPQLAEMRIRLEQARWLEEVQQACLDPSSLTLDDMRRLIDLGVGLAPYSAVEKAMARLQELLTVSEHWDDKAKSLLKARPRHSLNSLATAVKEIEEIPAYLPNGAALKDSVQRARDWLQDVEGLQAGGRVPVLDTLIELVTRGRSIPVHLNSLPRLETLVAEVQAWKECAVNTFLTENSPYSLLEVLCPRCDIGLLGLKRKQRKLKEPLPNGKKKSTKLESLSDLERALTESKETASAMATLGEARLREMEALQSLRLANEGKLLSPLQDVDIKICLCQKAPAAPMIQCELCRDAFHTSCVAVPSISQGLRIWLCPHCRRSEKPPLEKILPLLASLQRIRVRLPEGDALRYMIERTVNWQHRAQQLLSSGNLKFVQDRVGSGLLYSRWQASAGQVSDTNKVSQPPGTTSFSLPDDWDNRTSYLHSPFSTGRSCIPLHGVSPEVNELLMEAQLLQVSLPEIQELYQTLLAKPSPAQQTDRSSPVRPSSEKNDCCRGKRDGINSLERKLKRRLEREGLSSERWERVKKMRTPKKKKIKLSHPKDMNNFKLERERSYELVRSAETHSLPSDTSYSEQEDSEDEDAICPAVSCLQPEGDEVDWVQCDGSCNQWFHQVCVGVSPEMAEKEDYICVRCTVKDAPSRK
Structure (SMILES),"activity change, negative = inhibition",Potency
CCN(CC)c1nc2ccccc2nc1C(=O)Nc1ccc(F)c(Cl)c1,inactive: -3.51%,–
O=C(NCCc1cccs1)c1ccc(Cn2ccn3nc4c(c3c2=O)CCCC4)cc1,–,"inconclusive: 31.6 µM [inhibitor, single point]"
Cc1ccccc1NC(=O)CSc1nc(=O)[nH]c2c1CCCC2,inactive: -11.3%,–
O=C(c1ccccc1)N1CCCN(c2nc3ncccc3o2)CC1,–,"inconclusive: 50.1 µM [inhibitor, partial curve, poor fit]"
O=C(COc1ccc(Cl)cc1)NCCc1csc(-c2cccc(F)c2)n1,–,"inconclusive: 28.2 µM [inhibitor, partial curve, poor fit]"
Cc1ncoc1C(=O)N1CCC2(CCCN(Cc3cccc(F)c3F)C2=O)C1 (stereo not drawn),–,"inconclusive: 3.98 µM [inhibitor, partial curve, poor fit]"
CCc1nc2c(c(-c3ccc(O)cc3)n1)CN(Cc1ccc(C)cc1)CC2,–,"inconclusive: 20 µM [inhibitor, partial curve, poor fit]"
O=C(NCCc1ccccc1)C1=NO[C@@H]2CN(Cc3ccc(F)cc3)C[C@H]12,–,"inconclusive: 35.5 µM [inhibitor, partial curve, poor fit]"
O=C(O)/C=C/C(=O)c1ccc(Br)cc1,–,"inconclusive: 20 µM [inhibitor, partial curve, poor fit]"
CCN(CC)C(=O)c1ccc2c(c1)n(Cc1ccc(OC)cc1)c(=O)c1ccnn12,inactive: 4.13%,–
CC(C)c1ccc(NC(=O)CCNS(=O)(=O)c2cccc3nsnc23)cc1,–,"inconclusive: 1.58 µM [inhibitor, full curve, poor fit]"
CC1=C[C@@H](CNC(=O)NCc2ccccc2)[C@H](C(C)C)C[C@H]1CC(=O)N1CCN(C)CC1,inactive: 2.88%,–
COc1ccc(C(=O)Oc2ccc(C(c3c(C)[nH][nH]c3=O)c3c(C)[nH][nH]c3=O)cc2OC)cc1,–,"inconclusive: 0.794 µM [inhibitor, full curve, poor fit]"
O=C(O)c1ccc(COc2cccc(Cl)c2Cl)o1,inactive: 1.46%,–
CCCNC(=O)N1CC(Oc2ccc(-c3nc(C)no3)cc2)C1,inactive: 9.29%,–
CN1CCN(CCC(=O)Nc2ccc(Cl)cc2)CC1,–,"inconclusive: 39.8 µM [inhibitor, single point]"
C[C@@H]1CN(c2cnc3ccccc3n2)CC[C@@]1(O)C1CCC1,–,"inconclusive: 17.8 µM [inhibitor, partial curve, poor fit]"
CNc1nc2c(s1)C[C@]1(C)CCC([C@H](C)C(=O)N3CCSCC3)[C@H](O)[C@H]1[C@@H]2C (stereo partly drawn),inactive: 8.6% [at 86.2 µM],–
Cc1cccc(C(=O)Nc2ccc(S(=O)(=O)N3CCCCC3c3cccnc3)cc2)c1 (stereo not drawn),–,"inconclusive: 39.8 µM [inhibitor, single point]"
Cc1c(C(=O)C(=O)NCc2ccc(F)cc2)c2ccccc2n1C,inactive: 8.38%,–
CN(C(=O)[C@@H]1C[C@@H](c2ccc(F)cc2)N([S+](=O)([O-])c2ccccc2)C1)c1ccccc1,inactive: -19.7% [at 86.2 µM],–
CC1(C)CCCN(CC(=O)c2c[nH]c3ccccc23)C1,inactive: -8.11%,–

Structure (SMILES),"activity change, negative = inhibition",Potency
CC(=O)N1CCN(c2ncccc2-c2cc(-c3ccccc3)nc3c(C)noc23)CC1,–,active: 35.5 µM
N#Cc1ccccc1COC(=O)c1cccc2ccccc12,–,"inconclusive: 39.8 µM [inhibitor, single point]"
COc1cccc(CC(=O)N2CC(Oc3ccc(-c4nc(-c5ccccc5)no4)cc3)C2)c1,–,"inconclusive: 11.2 µM [inhibitor, partial curve]"
O=C(CCC[C@H]1NC[C@@H]2CC1CN(Cc1ccccc1)C2)NCCCc1ccccc1,–,active: 7.08 µM
CCOC(=O)C1=CN(c2ccc(C)cc2)C=C(C(=O)OCC)C1c1cccc(OCC)c1,–,"inconclusive: 31.6 µM [inhibitor, single point]"
CCCn1ccc2c(OCC(=O)Nc3ccc(OC)c(OC)c3)cccc2c1=O,–,"inconclusive: 31.6 µM [inhibitor, single point]"
O=C(N[C@@H]1CN(Cc2ccccn2)CCC[C@H]1O)c1ccc(OCc2ccccc2)cc1,inactive: -28.4% [at 86.2 µM],–
COc1ccccc1CNC(=O)c1ccc(CSc2nc3ccncc3n2Cc2cccc(F)c2)cc1,–,"inconclusive: 25.1 µM [inhibitor, single point]"
Cc1ccc2[nH]c(CN3CC[C@H]4NCCC[C@]4(CO)C3)cc(=O)c2c1,–,active: 12.6 µM
Cc1ccc(C(=O)Nc2cccn3nc(C4CCC4)nc23)cc1C,–,"inconclusive: 20 µM [inhibitor, single point]"
Cc1ncc(CSc2nccc(=O)[nH]2)c(CO)c1O,–,"inconclusive: 39.8 µM [inhibitor, single point]"
Oc1ccc2c(c1)Oc1ncn3nc(COc4ccccc4)nc3c1C2c1ccccc1 (stereo not drawn),–,inactive
Cn1nc(C2CCCN2)c2c(C(=O)NCc3cccs3)cc(C3CC3)nc21 (stereo not drawn),–,"inconclusive: 56.2 µM [inhibitor, partial curve, poor fit]"
CCc1ccc(C(=O)N2CCC(c3cc(-c4cccc(OC)c4)n[nH]3)CC2)cc1,inactive: -30.9%,–
CN(C)c1cccc(Nc2cc3c(cn2)CN(Cc2ccccc2)CCN3)c1,inactive: -28.8% [at 86.2 µM],–
Cc1ccc2nc(-c3c[nH]c4ccccc34)c(Nc3ccc(F)cc3)n2c1,–,"inconclusive: 31.6 µM [inhibitor, partial curve, poor fit]"
Cc1ccc(CNC(=O)C(C)n2c(=O)cc(-c3ccccc3)c3c(C)nn(C)c32)cc1 (stereo not drawn),–,"inconclusive: 35.5 µM [inhibitor, partial curve, poor fit]"
Cc1ccc(NC(=O)N2Cc3[nH]cnc3C[C@H]2c2nc(-c3ccc(Cl)cc3)no2)cc1,–,"inconclusive: 35.5 µM [inhibitor, single point]"
Cc1cccc2cc(CN(CC(C)C)C(=O)c3ccccc3)c(=O)[nH]c12,inactive: -3.17%,–
CC(C)OCCCn1c(=O)c2ccccc2n2c(-c3ccccc3F)nnc12,–,"inconclusive: 14.1 µM [inhibitor, partial curve, poor fit]"
CC1CCN(C(=O)c2nc3nc(-c4ccco4)cc(C(F)(F)F)n3n2)CC1,–,"inconclusive: 22.4 µM [inhibitor, partial curve, poor fit]"
